The other results are listed elsewhere or left out.
Key:
Experiment in all cases: glycan array binding signal (z-score within array); higher = stronger binding
Conditions in all cases: glycan notation: IUPAC condensed, linker removed
[1] = molecular target: GlcNAc(b1-3)Gal(b1-4)GlcNAc(b1-3)Gal(b1-4)GlcNAc(b1-3)GalNAc
Summary of the method: (§1)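 Glycan array data were curated from 3228 arrays in the Consortium for Functional Glycomics database and kept only where the protein sequence was available. Glycan names were converted to IUPAC-condensed notation, and columns mapping to the same glycan were averaged. The binding signal is a within-array Z-score, averaged across arrays of the same protein sequence at different concentrations or buffers and across linkers. Negative Z-scores can be read as non-binding.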

[2] = molecular target: GlcNAc(b1-3)Gal(b1-4)GlcNAc(b1-3)GalNAc
Summary of the method: as §1

[3] = molecular target: GlcNAc(b1-3)Gal(b1-4)GlcNAc(b1-3)[GlcNAc(b1-3)Gal(b1-4)GlcNAc(b1-3)]GalNAc
Summary of the method: as §1

[4] = molecular target: GlcNAc(b1-3)Gal(b1-4)GlcNAc(b1-6)[Gal(b1-3)]GalNAc
Summary of the method: as §1

[5] = molecular target: GlcNAc(b1-3)Gal(b1-4)GlcNAc(b1-6)[GlcNAc(b1-3)Gal(b1-3)]GalNAc
Summary of the method: as §1

[6] = molecular target: GlcNAc(b1-3)Gal(b1-4)GlcNAc(b1-6)[GlcNAc(b1-3)]Gal(b1-4)GlcNAc
Summary of the method: as §1

[7] = molecular target: GlcNAc(b1-3)GalNAc
Summary of the method: as §1

[8] = molecular target: GlcNAc(b1-3)Man
Summary of the method: as §1

[9] = molecular target: GlcNAc(b1-3)[GlcNAc(b1-4)][GlcNAc(b1-6)]GlcNAc
Summary of the method: as §1

[10] = molecular target: GlcNAc(b1-3)[GlcNAc(b1-6)]Gal(b1-4)GlcNAc
Summary of the method: as §1

[11] = molecular target: GlcNAc(b1-3)[GlcNAc(b1-6)]GalNAc
Summary of the method: as §1

[12] = molecular target: GlcNAc(b1-4)Gal(b1-4)GlcNAc
Summary of the method: as §1

[13] = molecular target: GlcNAc(b1-4)GlcNAc
Summary of the method: as §1

[14] = molecular target: GlcNAc(b1-4)GlcNAc(b1-4)GlcNAc
Summary of the method: as §1

[15] = molecular target: GlcNAc(b1-4)GlcNAc(b1-4)GlcNAc(b1-4)GlcNAc(b1-4)GlcNAc
Summary of the method: as §1

[16] = molecular target: GlcNAc(b1-4)GlcNAc(b1-4)GlcNAc(b1-4)GlcNAc(b1-4)GlcNAc(b1-4)GlcNAc
Summary of the method: as §1

[17] = molecular target: GlcNAc(b1-4)[GlcNAc(b1-6)]GalNAc
Summary of the method: as §1

[18] = molecular target: GlcNAc(b1-6)Gal(b1-4)GlcNAc
Summary of the method: as §1

[19] = molecular target: GlcNAc(b1-6)GalNAc
Summary of the method: as §1

[20] = molecular target: GlcNAc6S(b1-3)Gal(b1-4)GlcNAc
Summary of the method: as §1

[21] = molecular target: Kdn(a2-3)Gal(b1-3)GalNAc
Summary of the method: as §1

[22] = molecular target: Kdn(a2-3)Gal(b1-3)GlcNAc
Summary of the method: as §1

[23] = molecular target: Kdn(a2-3)Gal(b1-4)Glc
Summary of the method: as §1

[24] = molecular target: Kdn(a2-3)Gal(b1-4)GlcNAc
Summary of the method: as §1

[25] = molecular target: Kdn(a2-3)Gal(b1-4)[Fuc(a1-3)]GlcNAc
Summary of the method: as §1

[26] = molecular target: Kdn(a2-6)Gal(b1-4)GlcNAc
Summary of the method: as §1

[27] = molecular target: Man(a1-2)Man(a1-2)Man(a1-3)Man
Summary of the method: as §1

[28] = molecular target: Man(a1-2)Man(a1-2)Man(a1-6)[Man(a1-3)]Man
Summary of the method: as §1

[29] = molecular target: Man(a1-2)Man(a1-3)Man
Summary of the method: as §1

[30] = molecular target: Man(a1-2)Man(a1-3)[Man(a1-2)Man(a1-6)]Man
Summary of the method: as §1

[31] = molecular target: Man(a1-2)Man(a1-3)[Man(a1-2)Man(a1-6)]Man(a1-6)[Man(a1-2)Man(a1-2)Man(a1-3)]Man
Summary of the method: as §1

[32] = molecular target: Man(a1-2)Man(a1-3)[Man(a1-2)Man(a1-6)]Man(a1-6)[Man(a1-2)Man(a1-2)Man(a1-3)]Man(b1-4)GlcNAc(b1-4)GlcNAc
Summary of the method: as §1

[33] = molecular target: Man(a1-2)Man(a1-3)[Man(a1-6)]Man(a1-6)[Man(a1-2)Man(a1-3)]Man(b1-4)GlcNAc(b1-4)GlcNAc
Summary of the method: as §1

[34] = molecular target: Man(a1-2)Man(a1-6)[Man(a1-3)]Man(a1-6)[Man(a1-2)Man(a1-2)Man(a1-3)]Man
Summary of the method: as §1

[35] = molecular target: Man(a1-2)Man(a1-6)[Man(a1-3)]Man(a1-6)[Man(a1-2)Man(a1-2)Man(a1-3)]Man(b1-4)GlcNAc(b1-4)GlcNAc
Summary of the method: as §1

[36] = molecular target: Man(a1-3)[Man(a1-6)]Man
Summary of the method: as §1

[37] = molecular target: Man(a1-3)[Man(a1-6)]Man(a1-6)[Man(a1-2)Man(a1-3)]Man(b1-4)GlcNAc(b1-4)GlcNAc
Summary of the method: as §1

[38] = molecular target: Man(a1-3)[Man(a1-6)]Man(a1-6)[Man(a1-3)]Man
Summary of the method: as §1

[39] = molecular target: Man(a1-3)[Man(a1-6)]Man(a1-6)[Man(a1-3)]Man(b1-4)GlcNAc(b1-4)GlcNAc
Summary of the method: as §1

[40] = molecular target: Man(a1-3)[Man(a1-6)]Man(b1-4)GlcNAc(b1-4)GlcNAc
Summary of the method: as §1

[41] = molecular target: Man(a1-3)[Man(a1-6)]Man(b1-4)GlcNAc(b1-4)[Fuc(a1-6)]GlcNAc
Summary of the method: as §1

[42] = molecular target: Man(a1-6)Man
Summary of the method: as §1

[43] = molecular target: Man(b1-4)GlcNAc
Summary of the method: as §1

[44] = molecular target: MurNAc(b1-4)GlcNAc
Summary of the method: as §1

[45] = molecular target: Neu5Ac(a2-3)Gal
Summary of the method: as §1

B1: EULS2 M2 (Oryza sativa) (protein)
chain: MVYCRANPNYAMTARNGAVVLAPANPKDEYQHWIKDMRWSTSIKDEEGYPAFALVNKATGQAIKHSLGQSHPVRLVPYNPEVMDESVLWTESRDVGNGFRCIRMVNNIYLNFDAFHGDKYHGGVRDGTDIVLWKLCEGDSQRWKIQPYYILEQKLISEEDLNSAVDHHHHHH
Question: Which results are given for B1?
Answer: glycan array binding signal (z-score) [1]: -0.556; glycan array binding signal (z-score) [2]: 0.044; glycan array binding signal (z-score) [3]: -0.48; glycan array binding signal (z-score) [4]: -0.263; glycan array binding signal (z-score) [5]: -0.189; glycan array binding signal (z-score) [6]: -0.388; glycan array binding signal (z-score) [7]: 0.313; glycan array binding signal (z-score) [8]: -0.054; glycan array binding signal (z-score) [9]: 0.48; glycan array binding signal (z-score) [10]: -0.393; glycan array binding signal (z-score) [11]: -0.461; glycan array binding signal (z-score) [12]: -0.154; glycan array binding signal (z-score) [13]: -0.28; glycan array binding signal (z-score) [14]: -0.527; glycan array binding signal (z-score) [15]: -0.238; glycan array binding signal (z-score) [16]: -0.562; glycan array binding signal (z-score) [17]: 0.132; glycan array binding signal (z-score) [18]: -0.639; glycan array binding signal (z-score) [19]: -0.318; glycan array binding signal (z-score) [20]: 0.717; glycan array binding signal (z-score) [21]: 0.365; glycan array binding signal (z-score) [22]: -0.436; glycan array binding signal (z-score) [23]: -0.15; glycan array binding signal (z-score) [24]: -0.327; glycan array binding signal (z-score) [25]: -0.202; glycan array binding signal (z-score) [26]: -0.642; glycan array binding signal (z-score) [27]: -0.332; glycan array binding signal (z-score) [28]: -0.552; glycan array binding signal (z-score) [29]: 0.198; glycan array binding signal (z-score) [30]: -0.526; glycan array binding signal (z-score) [31]: -0.277; glycan array binding signal (z-score) [32]: -0.009; glycan array binding signal (z-score) [33]: 1.21; glycan array binding signal (z-score) [34]: 0.06; glycan array binding signal (z-score) [35]: 1.17; glycan array binding signal (z-score) [36]: 0.389; glycan array binding signal (z-score) [37]: 0.276; glycan array binding signal (z-score) [38]: 7.3; glycan array binding signal (z-score) [39]: 3.29; glycan array binding signal (z-score) [40]: 1.71; glycan array binding signal (z-score) [41]: 0.966; glycan array binding signal (z-score) [42]: 5.83; glycan array binding signal (z-score) [43]: 0.004; glycan array binding signal (z-score) [44]: -0.291; glycan array binding signal (z-score) [45]: -0.081
